# Results reported in patent US4368267A, “Epoxidation of lower α-olefins” (priority 1980, dated 1983).
# Experiments:
# [1] = system: Methylococcus capsulatus strain MC; experiment: Stimulation of propylene epoxidation in cell suspensions; format: cell-based; conditions: Propylene + 5 mM stimulator compound
# Experimental: (§1) The pH of the nutrient medium was adjusted to 7.0 by the addition of acid or base and 50 ml aliquots of the nutrient medium was charged into a plurality of 300 ml shake flasks. The shake flasks were inoculated with an inoculating loop of cells from an agar plate containing homogeneous colonies of the microorganisms on the plate (the purity of the isolates were confirmed by microscopic examination). The isolates had been maintained on agar plates under an atmosphere of methane and air having a 1:1 v/v gas ratio which had been transferred every two weeks. The gaseous phase of the inoculated flasks was then replaced with a gas mixture comprised of methane and air having a ratio of 1:1 on a v/v basis. The inoculated flasks were sealed air tight and were incubated on a rotary shaker of orbital radius 2.5 cm at 250 rpm and at 30° C. for two days until the turbidity in the medium had developed.
# (§2) The cells were harvested by centrifugation at 10,000 ×g at 4° C. for 30 minutes. The cell pellet was washed twice with a 0.15 M phosphate buffer at a pH of 7.0 (containing 0.002 M MgCl2). […]
# (§3) A 0.5 ml aliquot of each washed cell suspension (2 mg cells) was put into 10 ml vials at 4° C. which were sealed with a rubber cap. […] Samples of product (3 μl) were withdrawn periodically with a microsyringe and the products were analyzed by gas chromatography (ionization flame detector column). […]
# [2] = system: Methylobacter capsulatus Y (NRRL B-11,201); experiment: Methane hydroxylation and propylene epoxidation by washed cell suspensions; format: cell-based; conditions: Propylene + 5 mM stimulator compound
# Experimental: as §1, §2, §3
# [3] = system: whole cell suspensions of methylotrophs (C1 -utilizing microbes)
# [4] = system: Methylosinus trichosporium OB3b (NRRL B-11,196); experiment: Methane hydroxylation and alkene epoxidation by washed cell suspensions; format: cell-based
# Experimental: as §1, with “The shake flasks were inoculated with an inoculating loop of cells from an agar plate containing homogeneous colonies of the microorganisms on the plate (the purity of the isolates were confirmed by microscopic examination).” left out
# (§4) The cells were harvested by centrifugation at 10,000 ×g at 4° C. for 30 minutes. The cell pellet was washed twice with a 0.15 M phosphate buffer at a pH of 7.0 (containing 0.002 M MgCl2). The washed cells were then suspended in a 0.15 M phosphate buffer at pH 7.0.
# […] The gaseous phase of the vials was removed with vacuum and then was replaced with a gas mixture of alkene and oxygen at a 1:1 v/v ratio. It was then incubated at 30° C. on a rotary shaker at 300 rpm. Samples of product (3 μl) were withdrawn periodically with a microsyringe and the products were analyzed by gas chromatography (ionization flame detector column).
# [5] = system: Methylococcus capsulatus (CRL M1, NRRL B-11,219); experiment: Oxidation/epoxidation by washed cell suspensions; format: cell-based
# [6] = system: Methylobacterium organophilum (CRL 26, NRRL B-11,222); experiment: Epoxidation/hydroxylation by washed cell suspensions; format: cell-based
# Experimental: as §1, §4
# A 0.5 ml aliquot of each washed cell suspension (2 mg cells) was put into 10 ml vials at 4° C. which were sealed with a rubber cap. The gaseous phase of the vials was removed with vacuum and then was replaced with a gas mixture of alkene and oxygen at a 1:1 v/v ratio. It was then incubated at 30° C. on a rotary shaker at 300 rpm. Samples of product (3 μl) were withdrawn periodically with a microsyringe and the products were analyzed by gas chromatography (ionization flame detector column).
# Several experiments were carried out using a plurality of compounds capable of generating the necessary reducing power (NADH2 or NADPH2) required for the epoxidation of alkenes or dienes. These experiments were carried out using cell suspensions of methane grown methylotrophs using the procedure as described in Example 1 except that a stimulator compound was added to the reaction medium.
# [7] = target: T1, cell-free fractions of Methylococcus capsulatus (CRL M1, NRRL B-11,219) (Methylococcus capsulatus, UniProt G1UBD1+Q603F1+Q607G3); experiment: Epoxidation and hydroxylation activities in cell-free fractions; format: biochemical; conditions: Supernatant fraction + NADH (2.5 μmoles)
# T1 sequence (G1UBD1 33-414): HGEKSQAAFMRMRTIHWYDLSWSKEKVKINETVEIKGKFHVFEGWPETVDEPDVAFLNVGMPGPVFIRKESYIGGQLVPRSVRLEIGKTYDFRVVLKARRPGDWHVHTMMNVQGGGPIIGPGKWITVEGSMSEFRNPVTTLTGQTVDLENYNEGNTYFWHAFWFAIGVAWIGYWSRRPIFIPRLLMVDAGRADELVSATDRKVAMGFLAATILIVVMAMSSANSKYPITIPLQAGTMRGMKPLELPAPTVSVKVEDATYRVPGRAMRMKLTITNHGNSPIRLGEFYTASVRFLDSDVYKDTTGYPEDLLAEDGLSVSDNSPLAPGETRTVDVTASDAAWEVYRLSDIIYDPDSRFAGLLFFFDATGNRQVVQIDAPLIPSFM
# T1 sequence (Q607G3 1-247): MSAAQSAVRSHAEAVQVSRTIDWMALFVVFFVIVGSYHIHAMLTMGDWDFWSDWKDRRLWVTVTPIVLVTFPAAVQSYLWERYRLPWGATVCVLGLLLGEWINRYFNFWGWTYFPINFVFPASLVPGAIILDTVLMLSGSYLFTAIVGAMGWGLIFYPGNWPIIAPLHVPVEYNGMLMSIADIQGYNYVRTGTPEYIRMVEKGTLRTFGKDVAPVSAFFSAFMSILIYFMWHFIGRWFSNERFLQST
# T1 sequence (Q603F1 1-260): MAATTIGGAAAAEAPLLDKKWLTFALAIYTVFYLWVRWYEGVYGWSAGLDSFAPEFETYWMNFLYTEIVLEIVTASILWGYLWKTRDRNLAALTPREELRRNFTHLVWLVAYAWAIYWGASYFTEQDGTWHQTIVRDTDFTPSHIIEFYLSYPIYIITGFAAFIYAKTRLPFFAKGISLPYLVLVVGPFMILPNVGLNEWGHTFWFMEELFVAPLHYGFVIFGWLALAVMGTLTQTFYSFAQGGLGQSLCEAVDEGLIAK
# Experimental: Cells of methane-grown Methylococcus capsulatus (CRL M1, NRRL B-11,219) were obtained by the method of Example 1. […] However, when the cells were disrupted by passing twice through a French pressure cell (1000 Kg. pressure), both activities were found in the crude extract after 10,000×g. centrifugation. All of the activity in the crude extract was collected as a particulate fraction by further centrifugation of the crude extract at 40,000×g. for 90 min. at 4° C.
structure (smiles),measurement,setting,value
CO [Methanol],Rate of Product Formation (Propylene Oxide),[1],554 nmoles/hr/mg protein
same,Rate of Product Formation (Propylene Oxide),[2],79 nmoles/hr/mg protein
same,Effect on epoxidation of propylene at higher concentrations,[3]; 40 mM for formate and 48 mM for methanol,No inhibition was observed
same,Effect on propylene epoxidation or propane hydroxylation,"[3]; higher methanol concentration (>24 μmoles), within the first hour of reaction",Some inhibition were observed
same,Epoxidation Rate (Propylene Oxide),"[4]; metabolite 6 mM, 1 Hr, 1.1 mg protein, control 2.1",2.8 μmoles/0.5 ml Assay
same,Epoxidation Rate (Propylene Oxide),"[4]; metabolite 6 mM, 2 Hr, control 3.2",4.0 μmoles/0.5 ml Assay
same,Epoxidation Rate (Propylene Oxide),"[4]; metabolite 6 mM, 3 Hr, control 3.3",5.1 μmoles/0.5 ml Assay
same,Epoxidation Rate (Propylene Oxide),"[4]; metabolite 48 mM, 1 Hr, control 2.1",1.9 μmoles/0.5 ml Assay
same,Epoxidation Rate (Propylene Oxide),"[4]; metabolite 48 mM, 2 Hr, control 3.2",3.8 μmoles/0.5 ml Assay
same,Epoxidation Rate (Propylene Oxide),"[4]; metabolite 48 mM, 3 Hr, control 3.3",5.0 μmoles/0.5 ml Assay
same,Epoxidation Rate (Propylene Oxide),"[5]; metabolite 6 mM, 1 Hr, 0.74 mg protein, control 2.0",2.7 μmoles/0.5 ml Assay
same,Epoxidation Rate (Propylene Oxide),"[5]; metabolite 6 mM, 2 Hr, control 3.8",4.2 μmoles/0.5 ml Assay
same,Epoxidation Rate (Propylene Oxide),"[5]; metabolite 6 mM, 3 Hr, control 3.9",5.2 μmoles/0.5 ml Assay
same,Epoxidation Rate (Propylene Oxide),"[5]; metabolite 48 mM, 1 Hr, control 2.0",1.8 μmoles/0.5 ml Assay
same,Epoxidation Rate (Propylene Oxide),"[5]; metabolite 48 mM, 2 Hr, control 3.8",4.2 μmoles/0.5 ml Assay
same,Epoxidation Rate (Propylene Oxide),"[5]; metabolite 48 mM, 3 Hr, control 3.9",5.2 μmoles/0.5 ml Assay
same,Rate of Product Formation (Propylene Oxide),[6]; Propylene + 5 mM stimulator compound,101 nmoles/hr/mg protein
same,Epoxidation Rate (Propylene Oxide),"[6]; metabolite 6 mM, 1 Hr, 1 mg protein, control 1.4",1.8 μmoles/0.5 ml Assay
same,Epoxidation Rate (Propylene Oxide),"[6]; metabolite 6 mM, 2 Hr, control 2.2",2.5 μmoles/0.5 ml Assay
same,Epoxidation Rate (Propylene Oxide),"[6]; metabolite 6 mM, 3 Hr, control 2.6",3.2 μmoles/0.5 ml Assay
same,Epoxidation Rate (Propylene Oxide),"[6]; metabolite 48 mM, 1 Hr, control 1.4",1.3 μmoles/0.5 ml Assay
same,Epoxidation Rate (Propylene Oxide),"[6]; metabolite 48 mM, 2 Hr, control 2.2",2.5 μmoles/0.5 ml Assay
same,Epoxidation Rate (Propylene Oxide),"[6]; metabolite 48 mM, 3 Hr, control 2.6",3.3 μmoles/0.5 ml Assay
"NC(=O)C1=CN([C@@H]2O[C@H](COP(=O)(O)OP(=O)(O)OC[C@H]3O[C@@H](n4cnc5c(N)ncnc54)[C@H](O)[C@@H]3O)[C@@H](O)[C@H]2O)C=CC1 [NADH, reduced nicotinamide adenine dinucleotide, reference compound]","Oxidation Rate, Epoxidation of Propylene",[7],0 μmoles/30 min/assay
same,"Oxidation Rate, Hydroxylation of Methane",[7],0 μmoles/30 min/assay
